Test in all cases: Primary Screen for Target Class Profiling of Small Molecule Inhibitors of Methyltransferases
Assay [1] has as its target Glycine N-methyltransferase (Homo sapiens) (UniProt Q14749). The settings on record: purified enzyme, MTase-Glo SAH luminescence; measured here: GNMT inhibition; at 40 µM; stronger effect = lower value. The procedure, abridged: (§1)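 Each enzyme was reacted with SAM and its substrate, with compounds tested once at 40 uM; SAH formed was read by MTase-Glo luminescence.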
In assay [2] the target is Guanidinoacetate N-methyltransferase (Homo sapiens) (UniProt Q14353). To be noted: purified enzyme, MTase-Glo SAH luminescence; measured here: GAMT inhibition; at 40 µM; stronger effect = lower value. The method, boiled down:
as §1

The target in assay [3] is Histamine N-methyltransferase (Homo sapiens) (UniProt P50135). To be noted: purified enzyme, MTase-Glo SAH luminescence; measured here: HNMT inhibition; at 40 µM; stronger effect = lower value. The procedure, abridged: as §1
The target in assay [4] is Nicotinamide N-methyltransferase (Homo sapiens) (UniProt P40261). To be noted: purified enzyme, MTase-Glo SAH luminescence; measured here: NNMT inhibition; at 40 µM; stronger effect = lower value. The procedure, abridged:
as §1

The target of assay [5] is Phenylethanolamine N-methyltransferase (Homo sapiens) (UniProt P11086). The settings on record: purified enzyme, MTase-Glo SAH luminescence; measured here: PNMT inhibition; at 40 µM; stronger effect = lower value. The method, boiled down:
as §1

The list shows a part of the results. These are further read-outs of the screen, such as a control signal, another cell line or another target. No call is given for them.

The values that follow come from PubChem BioAssay AID1745853 (National Center for Advancing Translational Sciences (NCATS), 2022).
% is scaled to controls: 0 for no effect and ±100 for the full control effect.

`Cc1ccccc1C(=O)N[C@H]1[C@H](O)[C@H](O)C[C@@H]1c1ccc(N2CCOCC2)nc1`: the activity change, negative = inhibition in assay [1] is -6.26%; in assay [2], -9.39%; in assay [3] it was -3.53%; in assay [4] it was -7.44%; in assay [5] it was -0.891%.

For the compound `C=C[C@]1(C)C[C@H](O)[C@@H]2[C@H](OC(=O)[C@@H]2C)C1/C(C)=C/O[C@@H]1O[C@H](CO)[C@@H](O)[C@H](O)[C@H]1O` (stereo not given in full), the activity change, negative = inhibition was -1.29% in assay [1]; -3.73% in assay [2]; 4.14% in assay [3]; -12.5% in assay [4]; -4.84% in assay [5].

Take `NS(=O)(=O)c1ccc(C(=O)NC(Cc2ccncc2)C2CC(O)C2)cc1` (stereo not given): the activity change, negative = inhibition is -0.276% in assay [1]; -2.71% in assay [2]; 2.24% in assay [3]; -0.037% in assay [4]; -1.34% in assay [5].

Consider `Cc1ccccc1CCN1C(=O)c2cc3ccccc3n2CC1(C)C(=O)NCc1ccccc1` (stereo not given), for which the activity change, negative = inhibition in assay [1] worked out at 2.4%; in assay [2], 0%; in assay [3] it was 5.43%; in assay [4], 6.34%; in assay [5], 0.085%.

As for `C[C@H]1[C@@H](OC(=O)CCC(=O)O)O[C@@H]2O[C@@]3(C)CC[C@@H]4[C@H](C)CC[C@@H]1[C@@]24OO3`, the activity change, negative = inhibition in assay [1] is 5.74%; in assay [2], 4.72%; in assay [3] it was 10.3%; in assay [4], -5.51%; in assay [5], 5.05%.

Consider `CC(C)COCC(CN(Cc1ccccc1)c1ccccc1)N1CCCC1` (stereo not given), for which the activity change, negative = inhibition in assay [1] is -9.31%; in assay [2], 0.412%; in assay [3], -4.86%; in assay [4], -9.55%; in assay [5], -1.21%.

`COc1cc(NC(=O)CCC2CCCN(Cc3nc(C(C)C)cs3)C2)cc(OC)c1` (stereo not given): the activity change, negative = inhibition was -3.7% in assay [1]; -6.93% in assay [2]; -2.37% in assay [3]; -25.6% in assay [4]; -2.2% in assay [5].

Regarding `CC1(C(=O)NC2CCCCCCC2)Cn2c(cc3sccc32)C(=O)N1CCCN1CCOCC1` (stereo not given), the activity change, negative = inhibition in assay [1] was 2.23%; in assay [2], 0.335%; in assay [3], 5%; in assay [4] it was -9.39%; in assay [5], 2.21%.

For `Cc1c(CN2CCN(C(=O)C(C)O)CC2)sc2c(N3CCOCC3)nc(-c3cnc(N)nc3)nc12` (stereo not given), the results for the activity change, negative = inhibition in assay [1] and in assay [3] were -47.4% and -0.019%, respectively.

For `COc1cccc(S(=O)(=O)N2CCC(n3c(C)cnc3C3CC3)CC2)c1`, the activity change, negative = inhibition is -5.79% in assay [1]; 5.33% in assay [2]; -10.6% in assay [3]; -7.83% in assay [4]; -0.207% in assay [5].

With `COc1ccc(-c2nnn3c2nc(NCc2ccc(C)cc2)c2ccccc23)cc1`, the activity change, negative = inhibition in assay [1] is -0.841%; in assay [2], 1.24%; in assay [3] it was -0.059%; in assay [4], 1.1%; in assay [5], -1.26%.

As for `CCN(Cc1ccccc1)C(=O)Cn1c(=O)n(C)c2cnc(-c3ccccc3)nc21`, the activity change, negative = inhibition in assay [1] was -9.6%; in assay [2] it was 2.24%; in assay [3] it was 9.75%; in assay [4] it was -25.5%; in assay [5], 4.65%.

For the compound `CC1(C(=O)NCc2ccccc2)Cn2cnc(C(=O)NCCc3ccccc3)c2C(=O)N1C1CC1` (stereo not given), the activity change, negative = inhibition in assay [1] is -3.81%; in assay [2], 0.606%; in assay [3], -4.14%; in assay [4] it was -1.18%; in assay [5], 0.079%.

As to `CC1(C(=O)NC2CCCC2)Cn2c(ccc2-c2ccccc2)C(=O)N1CCc1cccs1` (stereo not given), the activity change, negative = inhibition is 0.369% in assay [1]; 0.053% in assay [2]; 2.71% in assay [3]; -1.73% in assay [4]; -1.59% in assay [5].

With `O=C(c1ccc(Nc2nn3c(=O)c4ccccc4nc3s2)cc1)N1CCN(C2CCCCC2)CC1`, the activity change, negative = inhibition in assay [1] is -10.2%; in assay [2], 0%; in assay [3] it was -15.9%; in assay [4], -14.1%; in assay [5], -0.032%.

Turning to `CCC1c2ccc(C)n2CCN1C(=O)Nc1cc(C)ccc1OC` (stereo not given), the activity change, negative = inhibition in assay [1] was 1.07%; in assay [2], 0%; in assay [3], 2.49%; in assay [4] it was -0.75%; in assay [5], 1.69%.

With `Cc1ccc(-n2nc(C(C)(C)C)cc2NC(=O)Nc2cc(COc3cccnc3)[nH]n2)cc1`, the activity change, negative = inhibition in assay [1] is -5.22%; in assay [2] it was 0.118%; in assay [3], 2.44%; in assay [4], -19.6%; in assay [5] it was -1.47%.

As to `NC(=O)c1ncn([C@@H]2O[C@H](CO)[C@@H](O)[C@H]2O)n1`, the activity change, negative = inhibition is 4.39% in assay [1]; 8.24% in assay [2]; 5.88% in assay [3]; -5.63% in assay [4]; -2.95% in assay [5].

Regarding `CC(C)c1ccc(N2C(=O)c3cc(-c4ccco4)nn3CC2(C)C(=O)NC2CCCCCC2)cc1` (stereo not given), the activity change, negative = inhibition in assay [1] was -6.01%; in assay [2] it was 4.01%; in assay [3], 1.9%; in assay [4], -13.6%; in assay [5] it was -4.58%.

In the case of `CN1CCN([C@H]2CCN(C(=O)COCc3ccccc3)C[C@H]2CCCO)CC1`, the activity change, negative = inhibition in assay [1] is 1.65%; in assay [2], 1.28%; in assay [3] it was 1.21%; in assay [4] it was -3.07%; in assay [5], -10.5%.

For `CC(=O)N1CCN(Cc2ccc([C@H](C)Nc3nccc(N4C(=O)OC[C@@H]4C(C)C)n3)cc2)CC1`, the activity change, negative = inhibition in assay [1] is 4.02%; in assay [2], 4.47%; in assay [3], 12.1%; in assay [4] it was -16.5%; in assay [5] it was 3.65%.

Take `CC(C)c1ccc(-n2cc(CN3CCCC(O)(CN(C)C)C3)cn2)cc1` (stereo not given): the activity change, negative = inhibition in assay [1] was -7%; in assay [2], -6.71%; in assay [3], -16.1%; in assay [4], -10.1%; in assay [5], -3.79%.

On to `Cc1ccc2c(cnn2C(=O)CCC(=O)N2CCN(c3ccccc3)CC2)c1`, for which the activity change, negative = inhibition in assay [1] was -2.29%; in assay [2], 0%; in assay [3], 2.85%; in assay [4], -7.54%; in assay [5], 0.452%.

As to `Cc1nc(CN2Cc3nc(OCc4ccc(F)cc4)ccc3OCC2=O)cs1`, the activity change, negative = inhibition in assay [1] was -13.1%; in assay [2], -3.03%; in assay [3], -4.23%; in assay [4], -9.95%; in assay [5], 0.161%.

For `CCN1CCN(c2nc3c(S(=O)(=O)c4ccccc4)nnn3c3ccccc23)CC1`, the activity change, negative = inhibition in assay [1] is 6.94%; in assay [2], 3.9%; in assay [3], -9.07%; in assay [4] it was 7.72%; in assay [5], 2.92%.

Take `Cc1ccc(Cn2nc3n(Cc4ccc(F)cc4)c(=O)c4ccccc4n3c2=O)cc1`: the activity change, negative = inhibition in assay [1] came to 4.71%; in assay [2], 0.284%; in assay [3] it was 2.7%; in assay [4], 4.58%; in assay [5] it was 3.84%.

As to `Cc1ccccc1C(=O)N1CCC(C(=O)N2CCC(c3nc4ncccc4[nH]3)CC2)C1` (stereo not given), the activity change, negative = inhibition in assay [1] is -3.95%; in assay [2] it was -6.31%; in assay [3] it was -3.45%; in assay [4], -9.57%; in assay [5] it was -6.94%.

Regarding `O=C1CCCC2=C1C(c1ccncc1Br)N=C(Nc1nc3ccccc3o1)N2` (stereo not given), the activity change, negative = inhibition in assay [2] was -0.996%; in assay [4], -30.1%; in assay [5] it was -14.4%.

Consider `CN(C)c1ccc2ncc(Nc3cc(F)cc(N4CCOCC4)c3)n2n1`, for which the activity change, negative = inhibition is -10.6% in assay [1]; -8.37% in assay [2]; -13.2% in assay [3]; -18.6% in assay [4]; -8.77% in assay [5].

Consider `CC1(C(=O)NCc2ccccc2Cl)Cn2cnc(C(=O)NCc3ccc(F)cc3)c2C(=O)N1C1CC1` (stereo not given), for which the activity change, negative = inhibition in assay [1] was 1.56%; in assay [2] it was 1.85%; in assay [3] it was 10.2%; in assay [4] it was -0.568%; in assay [5] it was 9.97%.
